This is one part of the list. These are noisy estimates, calculated here from bound and input reads.
Molecular target: T1, Pho4 (S. cerevisiae) (UniProt P07270)
T1 sequence: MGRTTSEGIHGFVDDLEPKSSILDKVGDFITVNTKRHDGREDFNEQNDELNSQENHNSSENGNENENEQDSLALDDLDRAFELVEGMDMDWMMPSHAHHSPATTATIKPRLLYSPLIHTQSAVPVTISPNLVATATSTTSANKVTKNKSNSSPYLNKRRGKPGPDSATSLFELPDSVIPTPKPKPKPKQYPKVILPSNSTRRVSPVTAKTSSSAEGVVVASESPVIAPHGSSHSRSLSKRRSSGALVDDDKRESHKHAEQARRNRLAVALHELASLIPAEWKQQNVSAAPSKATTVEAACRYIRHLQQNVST
Test: relative binding free energy (BET-seq); higher = weaker binding
Conditions: reference: library average

Sequence | relative binding free energy [kcal/mol]
ATGTGCACGTGGTATG | -0.15
TACTGCACGTGTGATA | 0.14
TGTGGCACGTGAATGT | 0.25
CATTTCACGTGTTTAT | 0.14
AAAGTCACGTGGGTAT | -0.02
GATAACACGTGTTTAT | 0.01
TGGGGCACGTGACATT | 0
TGAGTCACGTGTGGCT | 0.17
GTTGGCACGTGAGACG | 0.27
ATTGGCACGTGATGAT | -0.02
GGTTACACGTGGGAAA | 0.09
TTTGCCACGTGGTGGC | -0.13
ACTTGCACGTGGTTAA | -0.1
TACATCACGTGAGGTT | 0.4
TTTGACACGTGTGGGT | 0.09
TCCGTCACGTGGAGGT | 0.03
ATTTGCACGTGGCGGA | 0.01
GGTCTCACGTGGGCGT | 0.06
GGATTCACGTGTGGAG | 0.39
CGAGGCACGTGAAGGA | 0.34
AAAAGCACGTGTGAAT | 0.09
GTTATCACGTGTGTAC | 0.14
GTTCTCACGTGGAATG | 0.56

Sequence | relative binding free energy [kcal/mol]
GTGGACACGTGTTCTT | 0.08
GATGTCACGTGGTGAC | 0.08
GGTGACACGTGGCCGG | -0.06
ATGGCCACGTGGAGTT | -0.01
GTTAACACGTGATTTA | 0.14
GAAGTCACGTGGTCGG | -0.08
TTAGTCACGTGTCTGG | 0.15
AGTGACACGTGTTAAT | 0.07
GTAAGCACGTGTGCTT | 0.07
ATGGCCACGTGGTCTG | -0.13
TTTTGCACGTGTACAG | -0.06
AGGAACACGTGAGGGA | 0.39
CTTGCCACGTGATGGG | 0.1
TCGGACACGTGTTTTT | 0.09
TGAACCACGTGTTTTT | 0.04
GGTGACACGTGTGTAA | -0.02
TTTCGCACGTGAGGGT | 0.05
TTTGACACGTGTAGCG | 0.12
GGGGGCACGTGTATGG | -0.04
GGTGCCACGTGGAGGA | -0.05
CAGTGCACGTGTGGTA | 0.1
TCTCACACGTGTGTGT | 0.16
ATAACCACGTGGTGGG | -0.13

Sequence | relative binding free energy [kcal/mol]
TTTCACACGTGGTTTT | 0.09
ATGATCACGTGCGGGG | 0.23
GATCTCACGTGGGAGG | 0.26
TGAGCCACGTGCTGGG | -0.2
AATAGCACGTGGGTTC | -0.21
TCCGACACGTGGTGGT | 0.09
TGTCTCACGTGGGATT | 0.03
TGCATCACGTGGTCTT | 0.06
TTAGCCACGTGTAGTT | -0.08
CGTGGCACGTGGGGGT | -0.21
AGAGGCACGTGAGAAT | 0.15
TCAATCACGTGAGGTG | 0.47
GAGGTCACGTGAGGCG | 0.33
TGAATCACGTGTGGGA | 0.19
TGTATCACGTGCAGGT | 0.05
AGGGCCACGTGATGGA | -0.01
CATTGCACGTGTAGGA | 0.05
GGAAACACGTGGTGGA | 0.04
CGTTTCACGTGGAAGG | 0.26
AGGGTCACGTGTGCGG | 0.08
TGACGCACGTGGTGGG | -0.08
TCTGTCACGTGGGGTC | -0.1
TGGAGCACGTGATTTT | 0.14

Sequence | relative binding free energy [kcal/mol]
ATGTTCACGTGTGTAT | 0.28
GTGCGCACGTGTAGGA | -0.03
ATTTTCACGTGATGGG | 0.3
GGCTTCACGTGGTACG | 0.37
CGGGCCACGTGTGAGG | -0.08
TACTGCACGTGACGTT | 0.32
TATGACACGTGAGGAG | 0.37
CTATTCACGTGATGGG | 0.36
CGTCGCACGTGGGGGT | -0.34
ATGGACACGTGTACGG | 0.11
TTTATCACGTGTAGAT | 0.37
GGGTACACGTGTTAAG | 0.13
TGGGGCACGTGTCGAT | -0.01
GTGAGCACGTGTTTGG | 0.08
CTGTACACGTGATTGT | 0.11
AGGGACACGTGATTTT | 0.26
CTGTGCACGTGGATGT | -0.08
CTTTACACGTGGTGAG | 0.17
GTGATCACGTGTTTAA | 0.05
TGCATCACGTGGTTAG | 0.1
TATGGCACGTGTACGT | -0.05
AATTTCACGTGGTAAT | 0.24
TATGGCACGTGTAAGC | 0.13

Sequence | relative binding free energy [kcal/mol]
TCGCGCACGTGTAGGT | -0.11
AAAGACACGTGGTTGG | -0.16
GGGTCCACGTGTGAGT | 0.14
TTAGGCACGTGGTTCA | -0.21
CGGTACACGTGGCATG | 0.07
AAGATCACGTGGGGCA | 0.1
ATATGCACGTGAGGAG | 0.02
TATGTCACGTGATTAG | 0.28
TCATGCACGTGTGTGG | 0
TGACACACGTGGGTTT | -0.16
GTCCTCACGTGGGGGG | 0.1
TTTCTCACGTGATTCG | 0.41
AGTTACACGTGGGTTA | 0.1
GTGTTCACGTGCAGTG | 0.25
TTTCTCACGTGAGCTG | 0.4
GGAGTCACGTGGGCTT | 0.21
AGCGTCACGTGGGTGC | -0.07
CTGTACACGTGGTTGT | 0.03
ATGGTCACGTGTACAT | 0.07
GGCATCACGTGGGGAT | 0.15
GTGGGCACGTGCGGAA | -0.24
ATTATCACGTGGACTG | 0.12
TTAGGCACGTGGAGGC | -0.15

Source: the BET-seq Pho4 binding data (Le et al. 2018)
